Assay results taken from the supplement of paper PMC4967469.
A lower IC50 marks a more sensitive line; a fit beyond the top or the lowest dose is shown as a bound at that dose. For AUC the same curve is integrated over the 256-fold range of doses and scaled to a fraction; the more sensitive the line, the further below 1. For some assays here: An inferred top dose was derived from the fitted curves, not read from the paper. For some assays here: Drugs with an entry number were screened twice under separate entries, and the two screens often disagree.

How the values were obtained:
Assay in all cases: Viability of human cancer cell lines after 72 h of drug (GDSC screen)
5-Fluorouracil = compound: O=c1[nH]cc(F)c(=O)[nH]1 [5-Fluorouracil]; conditions: top dose 32 µM; top dose inferred
Protocol: (§1)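 Human cancer cell lines in 384-well plates, medium with 10% serum, drug for 72 h over a 256-fold dose range (nine 2-fold or five 4-fold steps up to the top dose). Adherent lines were fixed and stained with the nucleic acid dye Syto60, suspension lines read with resazurin; signal relative to control wells, capped at 0 and 100%. One two-parameter sigmoid per drug and line, fitted in a mixed model over all curves with the slope shared within a line.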

RDEA119 = compound: COc1cc(F)c(F)c(Nc2ccc(I)cc2F)c1NS(=O)(=O)C1(C[C@H](O)CO)CC1 [RDEA119]; conditions: top dose 5 µM, top dose inferred
Protocol: as §1

OSU-03012 = compound: NCC(=O)Nc1ccc(-n2nc(C(F)(F)F)cc2-c2ccc3c(ccc4ccccc43)c2)cc1 [OSU-03012]; conditions: top dose 16 µM; top dose inferred
Protocol: as §1

CUDC-101 = compound: C#Cc1cccc(Nc2ncnc3cc(OC)c(OCCCCCCC(=O)NO)cc23)c1 [CUDC-101]; conditions: top dose 5.12 µM; top dose inferred
Protocol: as §1

QS11 = compound: OC[C@H](Cc1ccccc1)Nc1nc(Oc2ccc3c(c2)CCC3)nc2c1ncn2Cc1ccc(-c2ccccc2)cc1 [QS11]; conditions: top dose 10.24 µM
Protocol: as §1

JNK-9L = compound: Fc1cc(-c2ccnc(Nc3ccc(-n4cnc(N5CCOCC5)n4)cc3)n2)cc(N2CCOCC2)c1 [JNK-9L]; conditions: top dose 5.12 µM; top dose inferred
Protocol: as §1

AC220 = compound: CC(C)(C)c1cc(NC(=O)Nc2ccc(-c3cn4c(n3)sc3cc(OCCN5CCOCC5)ccc34)cc2)no1 [AC220]; conditions: top dose 1.024 µM; top dose inferred
Protocol: as §1

Cell Line | AUC (5-Fluorouracil) | IC50 (5-Fluorouracil) [µM] | AUC (RDEA119; screen: GDSC drug entry 1014) | IC50 (RDEA119; screen: GDSC drug entry 1014) [µM] | AUC (RDEA119; screen: GDSC drug entry 1526) | IC50 (RDEA119; screen: GDSC drug entry 1526) [µM] | AUC (OSU-03012) | IC50 (OSU-03012) [µM] | AUC (CUDC-101) | IC50 (CUDC-101) [µM] | AUC (QS11) | IC50 (QS11) [µM] | AUC (JNK-9L) | IC50 (JNK-9L) [µM] | AUC (AC220) | IC50 (AC220) [µM]
NCI-H2347 (lung adenocarcinoma, adherent) | 0.945 | > 32 | 0.586 | 0.565 | 0.638 | 0.822 | 0.733 | 5.4 | 0.632 | 0.802 | 0.902 | > 10.2 | 0.596 | 0.623 | 0.983 | > 1.02
NCI-H2405 (lung adenocarcinoma, adherent) | 0.97 | > 32 | 0.733 | 1.56 | 0.802 | 2.77 | 0.678 | 3.33 | 0.751 | 1.85 | 0.925 | > 10.2 | 0.686 | 1.13 | 0.98 | > 1.02
NCI-H2444 (non-small cell lung carcinoma, adherent) | 0.988 | > 32 | 0.869 | > 5 | 0.95 | > 5 | 0.909 | > 16 | 0.625 | 0.745 | 0.988 | > 10.2 | 0.93 | > 5.12 | 0.988 | > 1.02
NCI-H2452 (mesothelioma, adherent) | 0.955 | > 32 | 0.856 | > 5 | 0.843 | 4.58 | 0.955 | > 16 | 0.935 | > 5.12 | 0.984 | > 10.2 | 0.697 | 1.28 | 0.984 | > 1.02
NCI-SNU-1 (stomach, suspension) | 0.721 | 8.69 | 0.977 | > 5 | 0.95 | > 5 | 0.788 | 7.26 | 0.495 | 0.31 | 0.914 | > 10.2 | 0.57 | 0.499 | 0.952 | > 1.02
NCI-SNU-5 (stomach, suspension) | 0.884 | > 32 | 0.695 | 1.11 | 0.906 | > 5 | 0.986 | > 16 | 0.86 | 4.41 | 0.989 | > 10.2 | 0.726 | 1.42 | 0.989 | > 1.02
NCI-SNU-16 (stomach, suspension) | 0.979 | > 32 | 0.989 | > 5 |  |  | 0.991 | > 16 | 0.897 | 5.09 | 0.991 | > 10.2 | 0.765 | 1.66 | 0.988 | > 1.02
NEC8 (testis, adherent) | 0.393 | 1.07 | 0.908 | > 5 | 0.973 | > 5 | 0.704 | 3.38 | 0.479 | 0.283 | 0.921 | > 10.2 | 0.592 | 0.548 | 0.991 | > 1.02
NH-12 (neuroblastoma, adherent) | 0.691 | 7.4 | 0.698 |  | 0.85 | 4.53 | 0.718 | 4.5 | 0.497 | 0.314 | 0.898 | > 10.2 | 0.557 |  | 0.97 | > 1.02
NKM-1 (acute myeloid leukaemia, suspension) | 0.404 | 1.08 | 0.739 | 1.54 | 0.769 | 1.94 | 0.803 | 8.23 | 0.369 | 0.137 | 0.896 | > 10.2 | 0.546 |  | 0.173 | 0.00629
NMC-G1 (glioma, adherent) | 0.864 | > 32 | 0.817 | 3.64 | 0.778 | 2.52 | 0.751 | 6.35 | 0.679 | 1.14 | 0.971 | > 10.2 | 0.637 | 0.836 | 0.98 | > 1.02
NOS-1 (osteosarcoma, adherent) | 0.824 | 25.2 | 0.831 | 4.2 | 0.863 | > 5 | 0.621 | 2.32 | 0.477 | 0.273 | 0.868 | > 10.2 | 0.514 | 0.352 | 0.837 | 0.919
NTERA-2 cl.D1 (testis, adherent) | 0.925 | > 32 |  |  | 0.881 | > 5 | 0.798 | 7.54 | 0.441 | 0.221 | 0.926 | > 10.2 | 0.537 | 0.404 | 0.983 | > 1.02
NU-DUL-1 (B-cell lymphoma, suspension) | 0.445 | 1.46 | 0.87 | 3.18 | 0.992 | > 5 | 0.628 | 2.09 | 0.126 | 0.0304 | 0.628 | 1.33 | 0.608 | 0.596 | 0.99 | > 1.02
NUGC-3 (stomach, adherent) | 0.916 | > 32 | 0.803 | 2.84 | 0.793 | 2.6 | 0.732 | 5.01 | 0.573 | 0.519 | 0.893 | > 10.2 | 0.581 | 0.547 | 0.983 | > 1.02
NUGC-4 (stomach, adherent) | 0.801 | 15.6 | 0.854 | 3.95 | 0.518 | 0.351 | 0.827 | 9.76 | 0.309 | 0.0934 | 0.984 | > 10.2 | 0.741 | 1.57 | 0.988 | > 1.02
NY (osteosarcoma, adherent) | 0.962 | > 32 | 0.947 | > 5 | 0.925 | > 5 | 0.82 | 9.01 | 0.983 | > 5.12 | 0.97 | > 10.2 | 0.551 | 0.441 | 0.989 | > 1.02
OAW-28 (ovary, adherent) | 0.947 | > 32 | 0.966 | > 5 | 0.974 | > 5 | 0.871 | > 16 | 0.32 | 0.087 | 0.909 | > 10.2 | 0.653 | 0.954 | 0.979 | > 1.02
